Data on 89 compounds can be found in paper PMC4336329 (PLoS ONE, 2015).

About 2,200 (0.71%) of roughly 310,000 compounds showed an effect of 50% or more. The effect is printed as a negative number. The list shows a part of the results.

For the experiment, the target named is human ether-à-go-go-related gene (hERG) potassium channel (human, UniProt Q12809). The experiment is described as follows: primary screen, population patch clamp on CHO cells stably expressing hERG.
Sequence of human ether-à-go-go-related gene (hERG) potassium channel (Q12809 whole entry, looked up): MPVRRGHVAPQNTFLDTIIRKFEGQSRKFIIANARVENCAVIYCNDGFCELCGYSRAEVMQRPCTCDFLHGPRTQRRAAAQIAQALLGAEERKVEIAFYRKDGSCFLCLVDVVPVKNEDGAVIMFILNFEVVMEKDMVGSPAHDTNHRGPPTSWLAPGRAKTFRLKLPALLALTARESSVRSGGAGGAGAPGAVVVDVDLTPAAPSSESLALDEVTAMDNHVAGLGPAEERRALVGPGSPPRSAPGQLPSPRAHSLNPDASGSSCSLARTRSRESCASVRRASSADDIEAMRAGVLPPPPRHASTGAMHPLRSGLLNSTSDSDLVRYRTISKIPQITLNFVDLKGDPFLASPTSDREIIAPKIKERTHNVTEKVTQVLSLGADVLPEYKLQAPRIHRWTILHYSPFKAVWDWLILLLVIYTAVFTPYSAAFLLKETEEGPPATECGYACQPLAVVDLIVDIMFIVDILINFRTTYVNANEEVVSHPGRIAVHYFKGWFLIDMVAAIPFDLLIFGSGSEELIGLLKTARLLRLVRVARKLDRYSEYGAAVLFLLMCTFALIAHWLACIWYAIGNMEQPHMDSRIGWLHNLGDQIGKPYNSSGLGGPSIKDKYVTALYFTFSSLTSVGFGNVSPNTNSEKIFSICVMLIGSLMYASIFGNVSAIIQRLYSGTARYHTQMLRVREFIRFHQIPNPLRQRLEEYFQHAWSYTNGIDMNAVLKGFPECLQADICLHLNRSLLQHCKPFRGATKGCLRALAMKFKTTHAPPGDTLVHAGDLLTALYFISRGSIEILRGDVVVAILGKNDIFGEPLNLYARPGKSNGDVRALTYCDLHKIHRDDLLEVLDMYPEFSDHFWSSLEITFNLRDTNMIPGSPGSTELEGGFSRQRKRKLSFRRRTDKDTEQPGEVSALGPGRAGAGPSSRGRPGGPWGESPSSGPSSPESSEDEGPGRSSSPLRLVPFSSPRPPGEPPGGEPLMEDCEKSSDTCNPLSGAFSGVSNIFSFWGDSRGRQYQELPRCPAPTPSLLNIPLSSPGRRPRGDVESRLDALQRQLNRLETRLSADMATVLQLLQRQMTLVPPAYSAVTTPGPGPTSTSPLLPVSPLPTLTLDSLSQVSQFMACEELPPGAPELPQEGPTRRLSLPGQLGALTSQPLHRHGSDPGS
`O=C(NCC(c1cccnc1)N1CCN(c2ccccc2F)CC1)Oc1ccccc1` (centres unmarked): the “hERG current change (%, negative = inhibition) at 1uM” value was determined as 9.57%. Next, `COc1ccc(C(=O)NC(=S)NNC(=O)c2cnccn2)cc1OC`: 8.33%; `CCOCCCN1CC(C(=O)NCCc2ccc(C)cc2)CC1=O` (centres unmarked): 4.18%. The same measure for `CCOC(=O)c1c(C)[nH]c(C)c1C(=O)COC(=O)/C=C/c1ccco1`: 5.79%; for `CC1=Nc2ccccc2NC(=O)C1Sc1nnc(C)s1` (centres unmarked): 2.65%. Next, `CCNS(=O)(=O)c1ccc(NC(=O)c2ccccc2)cc1`: -9.02%; `COC(=O)CC1C(=O)NCCN1C(=S)Nc1ccc(F)cc1` (centres unmarked): 11.4%; `Cn1c2ccccc2c(=O)c2ccc(-c3ccc4c(c3)OCO4)cc21`: 11.5%.

Turning to `CCn1c(C)c(C(C)=O)c(N2CCN(C(c3ccccc3)c3ccccc3)CC2)nc1=S`, the “hERG current change (%, negative = inhibition) at 1uM” value worked out at 6.03%.

With `CC(=O)NC12CC3CC(C1)CC(C(=O)NCc1ccc(C)cc1)(C3)C2`, the “hERG current change (%, negative = inhibition) at 1uM” value worked out at 14%. Consider `COc1ccc(CCNC(=O)CSCC(=O)Nc2ccccc2)cc1OC`, for which the “hERG current change (%, negative = inhibition) at 1uM” value is listed as 16.9%. The same measure for `CCCCOC(=O)c1ccc(NC(=S)NC(=O)c2c(Cl)cnn2C)cc1`: 8.7%. The same measure for `CSCCC(NC(=O)c1ccc(Cl)cc1Cl)C(=O)NNC(=O)c1ccncc1` (centres unmarked): 4.03%. Next, `COC(=O)CCCCC1SCC(NC(=O)c2ccccc2)C1=O` (centres unmarked): -0.542%; `COc1ccc(-c2ocnc2C(=O)N2CCN(Cc3cccnc3)CC2)cc1`: 14.3%; `Cn1cccc1C(=O)OCc1ccc(F)cc1`: 9.18%.

Turning to `CCOc1ccc(Cl)cc1S(=O)(=O)N1CCN(c2ccc(C)c(C)c2)CC1`, the “hERG current change (%, negative = inhibition) at 1uM” value came out at 1.54%.

On to `CCOc1ccc(Cl)cc1CNCCNCCO.Cl`, for which the “hERG current change (%, negative = inhibition) at 1uM” value came to 19.9%. Turning to `O=C(c1cccs1)C1C(c2ccc(Br)cc2)NC(=S)NC1(O)C(F)(F)F` (centres unmarked), the “hERG current change (%, negative = inhibition) at 1uM” value was -2.57%. For `CCCn1c(=O)c(C(=O)Nc2ccccc2C(=O)OCC)c(O)c2ccccc21`, the “hERG current change (%, negative = inhibition) at 1uM” value is recorded as 16.2%. The same measure for `C=CCn1c(SCC(=O)N2CCOCC2)nnc1C(C)NC(=O)c1ccccc1` (centres unmarked): 13.4%; for `CN(/N=C/C=C/c1ccccc1)c1cc(=O)n(C)c(=O)[nH]1`: -1.83%; for `Cc1ccc(S(=O)(=O)NC(=O)c2cccn2C)cc1`: 13.6%.

On to `C=COCCn1c(=N)n(CCC)c2ccccc21.Cl`, for which the “hERG current change (%, negative = inhibition) at 1uM” value was -9.91%. Next, `COc1ccc(CCN=C(N)NS(=O)(=O)c2cc(F)ccc2F)cc1`: -10.2%; `O=C(c1cn(-c2ccccc2)nc1-c1cccs1)N1CCN(c2ccccn2)CC1`: 4.93%.

Regarding `Cc1cc(N2CCCCC2)nc(N)n1`, the “hERG current change (%, negative = inhibition) at 1uM” value is recorded as -1.75%. Next, `O=C(COC(=O)c1cc(S(=O)(=O)N2CCc3ccccc3C2)ccc1Cl)NCc1ccco1`: 6.96%.

As to `Cc1ccc(NC(=O)Cn2c(=O)c3cccn3c3ccccc32)c(Cl)c1`, the “hERG current change (%, negative = inhibition) at 1uM” value came out at 17.7%. The same measure for `Cc1ccc(C)c(OC(=O)c2cccnc2)c1`: 14.1%; for `CCOc1ccc(S(=O)(=O)Nc2ccc(C(=O)N/N=C/c3c(C)nn(-c4ccccc4)c3N3CCCC3)cc2)cc1`: 10.7%.

For the compound `N#Cc1ccccc1CSCCNC(=O)Cc1c(F)cccc1Cl`, the “hERG current change (%, negative = inhibition) at 1uM” value was 14.4%. The same measure for `CCOC(=O)CSc1nc2c(sc3ccc([N+](=O)[O-])cc32)c(=O)n1Cc1ccco1`: 10.1%; for `COC(=O)C1CCN(Cc2cc(=O)oc3cc(OC)ccc23)CC1`: -1.21%; for `CCc1cc(=O)oc2c3c(cc(OCC(=O)NCc4ccccn4)c12)OC(C)(C)CC3`: 9.67%. Next, `Cc1cccc(C(=O)NCC(=O)NCCCSc2ccccc2)c1`: 11.6%; `COc1cccc(-c2nc(CCl)cs2)c1OC.Cl`: 9.59%. The same measure for `Cc1ccc2nsnc2c1NC(=O)c1ccc([N+](=O)[O-])o1`: 14.6%.

In the case of `COC(=O)c1cc(C)sc1NC(=S)N1CCN(CCc2ccccc2)CC1`, the “hERG current change (%, negative = inhibition) at 1uM” value is listed as 2.27%. `CCCc1nc(SCC(=O)Nc2nnc(CC)s2)c2c(C)c(C)sc2n1`: the “hERG current change (%, negative = inhibition) at 1uM” value is given as 23.7%.

As to `COc1cc(OC)cc(-n2nc(C(=O)NCCCN3CCOCC3)c3ccccc3c2=O)c1`, the “hERG current change (%, negative = inhibition) at 1uM” value is 2.78%. The same measure for `O=C1c2ccc(-c3nc4ccccc4o3)cc2C(=O)N1Cc1cccnc1`: 12.9%. The same measure for `C=CCN(CC(=O)c1sc(C(=O)OCC)nc1C)c1cccc(Br)c1`: 13%; for `O=C(O)C(Cc1cc2ccccc2[nH]1)N1C(=O)C2CC=C(Cl)CC2C1=O` (centres unmarked): -0.378%. Take `CCOc1cc(C2CC(=O)c3c(ccc4ccccc34)N2)ccc1O` (centres unmarked): the “hERG current change (%, negative = inhibition) at 1uM” value stood at 4.04%. The same measure for `Cc1ccc(NC(=O)C2C3C=CC4(O3)C2C(=O)N(CCN2CCOCC2)C4C(=O)NC2CCCCC2)cc1C` (centres unmarked): 12.7%. The same measure for `COc1cc(/C=N/n2nnnc2N)ccc1OCc1c(C)no[n+]1[O-]`: 11.4%; for `O=C(O)C(=O)O.O=C(c1ccco1)N1CCN(S(=O)(=O)c2ccc([N+](=O)[O-])cc2)CC1`: 1.29%. With `Cc1occc1C(=O)n1cnc2ccccc21`, the “hERG current change (%, negative = inhibition) at 1uM” value came out at 13%.

Take `CCS(=O)(=O)c1nc(S(=O)(=O)c2ccc(Cl)cc2)c(N2CCN(CCO)CC2)s1`: the “hERG current change (%, negative = inhibition) at 1uM” value was found to be 7.45%.

Consider `Cn1nnnc1SCC(=O)Nc1cc(S(=O)(=O)N2CCCC2)ccc1Cl`, for which the “hERG current change (%, negative = inhibition) at 1uM” value is given as 8.9%. The same measure for `O=S(=O)(c1cccc(-c2cn3ccccc3n2)c1)N1CCCCC1`: 14.3%. Next, `COC(C(=O)NC1CCCCCCC1)c1ccccc1` (centres unmarked): 2.42%; `CC(C)Oc1ccc(/C=C(\C#N)C(=O)NC2CC2)cc1`: 16.9%; `O=C(CSc1nc(=O)n(CCCN2CCOCC2)c2c1CCCC2)Nc1cccc(F)c1`: -10.9%.

Take `CCCS(=O)(=O)N1CCCC(C(=O)NC2CCCC(C)C2C)C1` (centres unmarked): the “hERG current change (%, negative = inhibition) at 1uM” value amounted to 10.7%.

On to `CCOc1ccc(S(=O)(=O)Nc2cccc(C(=O)NCC(c3ccco3)N3CCCC3)c2)cc1` (centres unmarked), for which the “hERG current change (%, negative = inhibition) at 1uM” value was determined as 4.47%.

As for `Cc1cccc(SCc2noc(C(=O)NC(C)C)c2C(=O)O)c1`, the “hERG current change (%, negative = inhibition) at 1uM” value is recorded as 14.3%. On to `CCN(CC(O)COCc1ccc(Cl)cc1)C1CCCCC1.Cl` (centres unmarked), for which the “hERG current change (%, negative = inhibition) at 1uM” value is given as -3.91%. `COc1ccccc1C1=NN(C2=NN=C(N)Cc3ncnn32)C(O)(C(F)(F)F)C1` (centres unmarked): the “hERG current change (%, negative = inhibition) at 1uM” value is 12.7%.

Take `O=C(Nc1cccc(Cl)c1)Nc1c[nH]c(=O)[nH]c1=O`: the “hERG current change (%, negative = inhibition) at 1uM” value is on record as 15.3%.

Take `O=C(O)c1nccnc1C(=O)Nc1ccc(Oc2c(Cl)cccc2Cl)nc1`: the “hERG current change (%, negative = inhibition) at 1uM” value is listed as -5.67%. The same measure for `Nn1c(SCC(=O)N2CCOCC2)nnc1-c1ccccc1Cl`: 4.84%; for `O=C(Nc1cc([N+](=O)[O-])ccc1O)c1ccc2c(c1)C(=O)N(Cc1ccco1)C2=O`: 5.61%. The same measure for `Nc1c(C(=O)N/N=C/c2ccc(F)cc2)oc2nc(-c3ccccc3)cc(-c3ccco3)c12`: 20.7%. Next, `Cc1cccc(C)c1OCC(=O)Nc1ccccc1C(=O)N1CCOCC1`: 12.9%. Turning to `COc1cccc(NC(=O)CCNS(=O)(=O)c2cccc3nonc23)c1`, the “hERG current change (%, negative = inhibition) at 1uM” value amounted to 17.1%. Next, `CCc1ccc(OCC(=O)NCC(c2ccc(Cl)cc2)N2CCCCC2)cc1` (centres unmarked): 14.3%; `O=c1[nH]n(CC2COC3(CCCCC3)O2)c(=O)c2ccccc12` (centres unmarked): 2.54%; `CCc1ccccc1NC(=O)C1CCN(S(C)(=O)=O)CC1`: 12.3%. As to `c1ccc(Cc2noc(CN3CCC(CN4CCOCC4)CC3)n2)cc1`, the “hERG current change (%, negative = inhibition) at 1uM” value is 15.3%. Next, `COc1ccc(N2CCN(C(=O)c3cc(=O)c4cc(Cl)ccc4o3)CC2)cc1`: -81.5%; `O=C(CSc1ccc(Cl)cc1)Nc1ccccc1N1CCN(C(=O)c2ccccc2)CC1`: -10.6%.

In the case of `CCOc1ccc(NC(=O)CN(C)C(=O)c2c(C)nn(-c3ccc(F)cc3)c2Cl)cc1OCC`, the “hERG current change (%, negative = inhibition) at 1uM” value is given as 8.08%. On to `CN1CCN(S(=O)(=O)c2ccc(NC(=O)c3ccc(F)cc3)cc2)CC1`, for which the “hERG current change (%, negative = inhibition) at 1uM” value is reported as 0.271%. Consider `O=c1cc(CN2CCOCC2)c2ccc(O)c(O)c2o1`, for which the “hERG current change (%, negative = inhibition) at 1uM” value is given as 11.1%. Next, `CN(C)/C=C/C(=O)c1cc(F)cc(C(F)(F)F)c1`: 15.7%; `CCN(CC)S(=O)(=O)c1ccc(N2CC(C(=O)NCc3cccnc3)CC2=O)cc1` (centres unmarked): 10.2%. The same measure for `NC(=S)c1cc2cc(Cl)ccc2oc1=O`: 13.8%. The same measure for `COc1ccccc1/C=N/NC(=O)C(NC(=O)c1ccccc1)=C(C)C`: -4.99%; for `O=C1CC(NNc2ccccc2)C(=O)N1c1ccccc1` (centres unmarked): 14.6%.

For the compound `CCn1c(SCC(=O)c2ccc(OC)cc2)nnc1C(C)NC(=O)c1ccc(OC)cc1` (centres unmarked), the “hERG current change (%, negative = inhibition) at 1uM” value came out at 6.76%. As for `CNS(=O)(=O)c1cnccc1N1CCN(c2cccc(C)c2)CC1`, the “hERG current change (%, negative = inhibition) at 1uM” value was determined as 4.64%.

Regarding `Cc1occc1C(=O)Nc1cnn(CCCC(=O)O)c1`, the “hERG current change (%, negative = inhibition) at 1uM” value worked out at 12.7%. On to `COc1ccc(OC)c(-n2cnnn2)c1`, for which the “hERG current change (%, negative = inhibition) at 1uM” value was -1.24%. Next, `COc1cccc(C(=O)NC(=S)Nc2ccc(Cl)cc2C(=O)O)c1`: 13.9%. Next, `O=C(Cn1cc(C(F)(F)F)cc(Cl)c1=O)NCCc1ccccc1`: 7.4%; `CC(C)(C)OC(=O)CNC(=O)c1[nH]cnc1C(=O)NCCCCCNC(=O)OC(C)(C)C`: -5.09%. For `Cc1ccc(S(=O)(=O)N2CCCOC2)cc1`, the “hERG current change (%, negative = inhibition) at 1uM” value was 7.03%.
